PubChem BioAssay AID624173 (National Center for Advancing Translational Sciences (NCATS), 2012)
The whole screen tested about 410,000 compounds, of which about 490 (0.12%) were called active. The shares of active, inactive and inconclusive entries below differ from those in the screen. The call rests on the fitted dose curve; in most records, active means well fitted inhibition curve with a large enough effect; inconclusive means small, poorly fitted or top-dose-only effect; inactive means flat fitted curve, though single readings scatter. A potency beside an inconclusive call is a rough fit, not a confirmed value.

target: pyruvate kinase (Trypanosoma brucei) (UniProt Q57TT1); assay: qHTS of Trypanosoma Brucei Inhibitors; settings: TbPYK enzyme, Kinase-Glo Plus ATP luminescence, 45 min; series mostly up to 76.8 µM; activity, negative = inhibition: at the top concentration; further: nearly all actives have a fitted effect of over 50% in size
How it was run: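 Screened from lowest to highest concentration, compounds were pinned into TbPYK/substrate mixtures, and ADP (130 uM final) was added. Plates sat at room temperature for 45 min prior to Kinase-Glo Plus detection by luminescence.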
On the % scale 0 is the no-effect control and ±100 the full control effect; potency means the concentration at half of the fitted maximal effect; tags describe the fitted curve by direction and shape.

Row | SMILES | Potency | activity, negative = inhibition
1 | Cc1ccc(N2CSC3=C(C#N)C(c4cccs4)CC(=O)N3C2)cc1 (centres undefined) | inconclusive: 7.94 µM [inhibitor, partial curve, poor fit] | 
2 | Cc1ccc(NC(=O)/C(CN(C)C)=N\O)cc1 |  | inactive: -3.06%
3 | COC(=O)c1ccc(COc2ccc(/C=N/N3CCN(C)CC3)cc2)cc1 |  | inactive: 2.41%
4 | CCn1c(-c2cc(-c3ccc(C)cc3)nc3ccccc23)n[nH]c1=S | inconclusive: 15.8 µM [inhibitor, partial curve] | 
5 | CC(OC(=O)c1cccs1)C(=O)NC1CCCCC1C (centres undefined) |  | inactive: 9.72%
6 | COc1ccc(C(=S)NC2CCCCC2)cc1 | inconclusive: 31.6 µM [inhibitor, partial curve, poor fit] | 
7 | CCOc1cc(CNn2cnnc2)cc(Cl)c1OCC(=O)NC(C)(C)C |  | inactive: 6.29%
8 | CCc1n[nH]c(=S)n1/N=C/c1cc(Br)c(OC)cc1OC | inconclusive: 2.51 µM [inhibitor, full curve] | 
9 | CCc1[nH]c(=S)c(C#N)c(-c2ccccc2)c1C(=O)OC | inconclusive: 14.1 µM [inhibitor, partial curve, poor fit] | 
10 | S=c1[nH]nc(C2CCCCC2)n1/N=C/c1ccc(Br)s1 | inconclusive: 31.6 µM [inhibitor, single point] | 
11 | COC(=O)/C=c1/s/c(=C(/C#N)C(=O)N2CCOCC2)n(-c2ccccc2)c1=O | inconclusive: 39.8 µM [inhibitor, single point] | 
12 | Cc1cc(C(F)(F)F)nn1Cc1n[nH]c(=S)n1-c1ccc(F)cc1 | inconclusive: 7.08 µM [inhibitor, partial curve] | 
13 | COc1ccc(/C=C2/C(=O)NC(=O)N(c3ccc(C)c(C)c3)C2=O)cc1CN1C(=O)c2ccccc2C1=O | inconclusive: 28.2 µM [inhibitor, single point] | 
14 | CCc1n[nH]c(=S)n1/N=C/c1c(O)ccc2ccccc12 | inconclusive: 1.26 µM [inhibitor, full curve, poor fit] | 
15 | O=S(=O)(Nc1nc2cc3c(cc2nc1Cl)OCCO3)c1ccccc1 | inconclusive: 28.2 µM [inhibitor, partial curve] | 
16 | CCOc1ccccc1Nc1nnc(SCC(=O)Nc2nc(-c3ccc(OC)cc3)cs2)s1 | inconclusive: 15.8 µM [inhibitor, partial curve] | 
17 | O=C(CCN1CCCCCC1)Nc1cccc(Cl)c1 |  | inactive: -0.22%
18 | CCCSC1=C(C#N)C(c2ccccc2C)CC(=O)N1 (centres undefined) | inconclusive: 28.2 µM [inhibitor, partial curve] | 
19 | CCOc1ccc(N(Cc2cc3cc(C)ccc3[nH]c2=O)C(=O)c2cccc(Cl)c2)cc1 |  | inactive: 4.15%
20 | CCOC(=O)c1ccc(-n2c(CCC(=O)O)ccc2-c2cccs2)cc1 | inconclusive: 28.2 µM [inhibitor, single point] | 
21 | Cc1ccc(C(=O)Nc2nc3ccccc3[nH]2)cc1 |  | inactive: -12.9%
22 | O=C(O)c1ccc(/C=N\Nc2ccccn2)cc1 | inconclusive: 39.8 µM [inhibitor, single point] | 

Row | SMILES | Potency | activity, negative = inhibition
23 | COc1ccc(S(=O)(=O)N2CCC(C(=O)N3CCCCCC3)CC2)cc1 | inconclusive: 31.6 µM [inhibitor, partial curve, poor fit] | 
24 | O=C1NC(=O)N(c2ccccc2)C(=O)/C1=C/c1ccc(Sc2ccccc2)o1 | inconclusive: 39.8 µM [inhibitor, partial curve, poor fit] | 
25 | COc1ccccc1NC(=O)Nc1nc(CC(=O)Nc2ccc(N(C)C)cc2)cs1 |  | inactive: -8.92%
26 | O=C1C=CC(=O)N1c1ccc2ccccc2c1 | inconclusive: 44.7 µM [inhibitor, partial curve, poor fit] | 
27 | CCN(CC)c1ccc(NC(=O)Nc2cccc(C(C)=O)c2)cc1 | inconclusive: 35.5 µM [inhibitor, single point] | 
28 | Cc1cc(NC(=O)CS(=O)(=O)c2cn(Cc3ccccc3Cl)c3ccccc23)no1 | inconclusive: 12.6 µM [inhibitor, partial curve] | 
29 | CCNC(=S)NNC(=O)C1CCCCC1 | inconclusive: 50.1 µM [inhibitor, single point] | 
30 | COc1cc(C(Nc2ccc3c(c2)OCO3)C(=O)NC2CCCCC2)cc(OC)c1OC (centres undefined) | inconclusive: 3.16 µM [inhibitor, full curve] | 
31 | S=c1[nH]nc(Cc2ccccc2)n1-c1ccccc1 | inconclusive: 10 µM [inhibitor, partial curve] | 
32 | O=C(Nc1nc(-c2ccco2)c(-c2ccco2)s1)c1ccc(F)cc1F | inconclusive: 50.1 µM [inhibitor, single point] | 
33 | O=C(O)Cn1c2ccccc2c2n[nH]c(=S)nc21 | inconclusive: 14.1 µM [inhibitor, partial curve, poor fit] | 
34 | C=CCNC(=O)C(C)Sc1ccc(Cl)cc1 (centres undefined) | inconclusive: 28.2 µM [inhibitor, single point] | 
35 | C#CCNC(=O)C(C)c1ncc(C(F)(F)F)cc1Cl (centres undefined) | inconclusive: 17.8 µM [inhibitor, partial curve, poor fit] | 
36 | O=C(NCC1CC1)c1ccc2c3n(nc2c1)-c1ccccc1CO3 | inconclusive: 35.5 µM [inhibitor, partial curve, poor fit] | 
37 | Cn1cccc1/C=C1\CCc2ccccc2C1=O | inconclusive: 39.8 µM [inhibitor, single point] | 
38 | CCc1ccc(CNCCc2ccccc2F)cc1 |  | inactive: -0.953%
39 | CCn1c(CCNC(=O)c2cccs2)nnc1SCC(=O)c1ccc(OC)cc1 | inconclusive: 25.1 µM [inhibitor, partial curve] | 
40 | Cc1ccc(-n2c(CNc3ccc(C)c(Cl)c3)n[nH]c2=S)cc1 | active: 4.47 µM | 
41 | Cc1ccc(C)c(S(=O)(=O)NCC(c2ccco2)S(=O)(=O)c2ccc(F)cc2)c1 (centres undefined) |  | inactive: 1.34%
42 | CC(=O)N1c2ccccc2C2(O)N=C(C)SC12 (centres undefined) | active: 12.6 µM | 
43 | Cc1ccc(C(=O)NNC(=O)c2cc(C)nc3ccccc23)cc1 | inconclusive: 35.5 µM [inhibitor, partial curve, poor fit] | 
44 | CC(C)c1ccc(NS(=O)(=O)c2ccc3[nH]cc(C(=O)N4CCCC4)c(=O)c3c2)cc1 |  | inactive: 2.04%
